These results are taken from ChEMBL document CHEMBL5308541, “MAIP: An Open-Source Tool to Enrich High-Throughput Screening Output and Identify Novel, Druglike Molecules with Antimalarial Activity” (ACS Med Chem Lett, 2023).

About 540 (0.36%) of roughly 150,000 compounds showed an effect of 50% or more. Some of the results follow.

The test deals with Plasmodium falciparum. Kind of test: Primary screen in NF54 nanoGlo assay, in single point, at 2uM, 72h; a lower Z score goes with more inhibition. Conditions: timepoint 72 hour. The format is functional, Erythrocyte.
Usually % Inhibition stands for the change of the read-out against control, counted positive when it falls. For the molecule `CCNc1ncc(C(=O)NC2CCN(CCc3ccccc3)CC2)cn1`, the “% Inhibition” value is listed as -5% and the Z score came to 0.96.
As for `Cc1c(CN2CCN(CCOc3ccccc3)CC2)[nH]c2ccc(F)cc12`, the “% Inhibition” value is given as 6% and the Z score was -1.19.
On to `Cc1n[nH]cc1C1CCN(C(=O)[C@@H]2CN(C)C(=O)c3ccccc32)CC1`, for which the “% Inhibition” value is -2% and the Z score turned out to be 0.42.
With `Nc1cc(N2CCC(c3nc4cc(F)ccc4[nH]3)CC2)nc(N2CCOCC2)n1`, the “% Inhibition” value came out at 52% and the Z score is listed as -10.32.
`Cc1cccc(-c2cnc(-c3ccncc3)nc2C2CCN(C(=O)c3cc(CC(C)C)on3)CC2)c1`: the “% Inhibition” value worked out at 4% and the Z score is reported as -0.8.
Regarding `F[C@H]1C[C@@H](CNCc2ccc3occc3c2)N(Cc2cncnc2)C1`, the “% Inhibition” value is listed as -9% and the Z score amounted to 1.33.
On the same counts, the results for `CN(C)c1nc2c(c(NCCCNc3cccnc3)n1)CCCC2` are -4% and 0.63.
Consider `N#Cc1cnn(-c2cc(Nc3ccc(OC(F)(F)F)cc3)ncn2)c1N`, for which the “% Inhibition” value is 12% and the Z score is on record as -1.89.
Take `NC(=O)[C@@H]1CCCN1C1CCN(C(=O)c2cc3c(Br)cccc3[nH]2)CC1`: the “% Inhibition” value is given as -5% and the Z score is 0.9.
Regarding `C[C@@H](c1cccc(-c2cc(-n3cccn3)ncn2)c1)N1CCCC1`, the “% Inhibition” value was 7% and the Z score is listed as -1.4.
As to `O=C(Cc1c[nH]c2ccccc12)Nc1cc(N2CCN(c3ccccc3)CC2)ncn1`, the “% Inhibition” value is listed as -6% and the Z score came out at 1.05.
In the case of `Cc1nc(N)ccc1-c1cccc(C(=O)N2CCCC[C@@H]2CN2CCCC2)c1`, the “% Inhibition” value is recorded as 8% and the Z score is -1.36.
Taken in the same sequence, the figures for `C[C@@H](c1ccccc1F)N1CCN(CC(=O)N(C)C(C)(C)C#N)CC1` were -9% and 1.6.
Turning to `Cc1ccc2cc(-c3ccc(C(=O)N4CC(N5CCCCC5)C4)cc3)ccc2n1`, the “% Inhibition” value is -7% and the Z score is listed as 1.21.
On to `c1cc(CN2CCC(c3c[nH]c4ncccc34)CC2)c2c(c1)OCCO2`, for which the “% Inhibition” value came out at 3% and the Z score was -0.45.
Taken in the same sequence, the figures for `O=C(NCCn1ccccc1=O)N1CCC2(c3ccccc3)C(C1)C2(F)F` (centres undefined) were -1% and 0.12.
For the molecule `Cc1ccc(N2CCC(N3CCCN(C)C4(CCN(C)CC4)C3)CC2)cc1`, the “% Inhibition” value is -16% and the Z score is recorded as 3.35.
For the molecule `Cc1nc(-c2ccc(CNc3nccc(-c4ccncc4)n3)cc2)no1`, the “% Inhibition” value was 4% and the Z score is recorded as -0.92.
On the same counts, the results for `CCOc1cc(NC2CCN(c3nc(OC)cc(C(F)(F)F)n3)CC2)ncn1` are 1% and -0.1.
On to `CCOCc1cn(Cc2nn(C)cc2Cl)nn1`, for which the “% Inhibition” value is -1% and the Z score worked out at 0.21.
On the same counts, the results for `CCN(C[C@H](O)c1ccc(C)cc1)C(=O)c1noc2c1CC(C)(C)CC2` are -5% and 0.9.
Regarding `Cc1nc2c(C#N)cnn2c(O)c1CC(=O)Nc1ccc(-c2nc3ccccc3[nH]2)cc1`, the “% Inhibition” value is listed as -8% and the Z score came to 1.57.
As to `CC(C)N1CCN(CCCN2CCC(OC3CCCC3)CC2)CC1`, the “% Inhibition” value was determined as 8% and the Z score is listed as -1.61.
Turning to `Cc1ccc(C)c(OCCN(C)c2cc(C3CC(O)C3)nc(C)n2)c1` (centres undefined), the “% Inhibition” value is given as -8% and the Z score is reported as 1.41.
Take `CCn1cc(NC2CCN(c3cccc(-c4ccc(F)cc4)c3)CC2)nn1`: the “% Inhibition” value is -5% and the Z score was 1.01.
On the same counts, the results for `CC(C)c1noc(-c2ccnc(NCCOc3cccnc3)c2)n1` are -12% and 2.09.
On to `COc1ccc2[nH]cc(C3=CCN(c4ccc5nnc(-c6ccccc6F)n5n4)CC3)c2c1`, for which the “% Inhibition” value is 51% and the Z score is on record as -8.85.
For `CCCOc1cc(CNc2cnc3cc(F)c(F)cc3n2)ccn1`, the “% Inhibition” value worked out at 3% and the Z score is reported as -0.49.
On the same counts, the results for `Cc1noc(C)c1-c1c(-c2ccccc2)ncn1CCOc1cccc2cccnc12` are 0% and 0.07.
Taken in the same sequence, the figures for `COC1(C(=O)O)CCN(C(=O)[C@@H]2C[C@@H]3C[C@@H]3C2)C1` (some centres undefined) were 2% and -0.33.
On the same counts, the results for `CC(C)NC(=O)c1ccnc(N2CC(CO)C(CN3CCN(C)CC3)C2)c1` (centres undefined) are 2% and -0.36.
In the case of `COCCCn1cnnc1CNc1cc([C@H]2C[C@@H](N)C2)nc(N(C)C)n1`, the “% Inhibition” value is on record as -1% and the Z score was found to be 0.15.
On to `O=C(NC1CNCC1O)c1cccc(-c2ncc(F)c(N3CCCC3)n2)c1` (centres undefined), for which the “% Inhibition” value is on record as 4% and the Z score is -0.72.
On the same counts, the results for `COCCN1CCC(Nc2ncnc3c(C)cccc23)CC1` are 4% and -0.91.
On the same counts, the results for `CN1C[C@@]2(CCCN(C(=O)CCN3CCCCCC3=O)CC2)OC1=O` are -16% and 2.72.
On the same counts, the results for `CO[C@H]1C[C@H]2CC(NC3CCCN(c4cccnn4)C3)C[C@H]2C1` (some centres undefined) are -6% and 1.28.
`Nc1nc(NC2CCN(c3cccnn3)CC2)nc2sccc12`: the “% Inhibition” value is recorded as -3% and the Z score came to 0.45.
Turning to `CN1CCN(CC[C@H]2CCCCN2Cc2cnn(-c3ccc(F)cc3)c2)CC1`, the “% Inhibition” value came to 3% and the Z score is recorded as -0.51.
For the molecule `COc1ccc2cc(C(=O)NC3CCN(c4nc(C)nc5c4CCCC5)CC3)[nH]c2c1`, the “% Inhibition” value is -11% and the Z score worked out at 1.94.
On the same counts, the results for `O=C(c1cc(C2CC2)[nH]n1)N1CCN2C(=O)OCC2C1` (centres undefined) are -6% and 1.15.
Taken in the same sequence, the figures for `CC(C)(C)[C@@H]1NC(=O)CC[C@H]1NCc1cc2ccccc2[nH]1` were -4% and 0.78.
`Cn1ccnc1[C@@H](O)C1CCN(C(=O)NCc2ccnc3ccccc23)CC1`: the “% Inhibition” value came to 3% and the Z score was -0.56.
Taken in the same sequence, the figures for `CC1CCN(CCCCNC(=O)N2CCC(C)[S+]([O-])CC2)CC1` (centres undefined) were -1% and 0.08.
On the same counts, the results for `O[C@@H]1CCCC[C@H]1Oc1ccc(Nc2ncnc3ccc(F)cc23)cc1` are -7% and 1.39.
Taken in the same sequence, the figures for `Cc1ncc(COc2c(C)c(C)nn2C)o1` were 11% and -2.42.
Regarding `C[C@H]1CN(C2CCOCC2)CCN1C(=O)NCc1cccc(-c2cccnc2)c1`, the “% Inhibition” value is on record as -1% and the Z score is on record as 0.29.
Taken in the same sequence, the figures for `Cn1nc(C(=O)Nc2cnc(CC3CC3)nc2)cc1C(F)(F)F` were 1% and -0.26.
For `COCCCN1CCC(Nc2ccc3c(Cl)ccc(C)c3n2)CC1`, the “% Inhibition” value is given as -3% and the Z score was 0.68.
Taken in the same sequence, the figures for `CC(NC(=O)OC(C)(C)C)C1CCN(C[C@@H]2CCCN2C(=O)OC(C)(C)C)CC1` (some centres undefined) were 33% and -6.49.
In the case of `CC(=O)N1CCN(C(=O)[C@H](C)N2CCC(c3cccc4cnccc34)CC2)CC1`, the “% Inhibition” value is on record as -7% and the Z score is recorded as 1.07.
In the case of `O=C(c1cc(C2CC2)[nH]c(=O)c1)N1CC2CC3CC2C1C3O` (centres undefined), the “% Inhibition” value was -1% and the Z score is 0.11.
As to `O=C(c1ccc(-c2ccc3ncccc3c2)cc1)N1CCN(CCCO)CC1`, the “% Inhibition” value was -9% and the Z score was determined as 1.61.
`COc1cccc(-c2ccnc(Nc3ccccc3)n2)c1`: the “% Inhibition” value was -1% and the Z score is 0.15.
For the molecule `CNc1nc(C)c(-c2ccnc(Nc3cccc(S(C)(=O)=O)c3)n2)s1`, the “% Inhibition” value came to 47% and the Z score was -7.17.
Take `Fc1cnc(Nc2cccc(OC3CCCC3)c2)nc1`: the “% Inhibition” value is on record as -9% and the Z score is 1.61.
On the same counts, the results for `Fc1ccc(N2CCC(N3CCC[C@H](Cn4ccnc4)C3)CC2)cc1F` are 16% and -3.41.
On to `Cn1c(NCc2cccnc2)nc2c(F)cccc21`, for which the “% Inhibition” value is on record as 0% and the Z score was -0.02.
Regarding `C[C@H]1CCCN(c2cc(NC3CCN(c4nccs4)CC3)ncn2)C1`, the “% Inhibition” value was -12% and the Z score is recorded as 1.85.
For the molecule `CCOC(=O)[C@@](C)(NC(=O)CS(=O)(=O)CC(C)C)C(C)C`, the “% Inhibition” value is -3% and the Z score amounted to 0.44.
As for `Cc1cccc2[nH]cc(-c3csc(NCC(F)(F)F)n3)c12`, the “% Inhibition” value is given as -8% and the Z score turned out to be 1.32.
Consider `CS(=O)(=O)Cc1ccc(CNc2ccnc3c(F)ccc(F)c23)cc1`, for which the “% Inhibition” value was -12% and the Z score stood at 2.08.
Turning to `C[C@@H](CN1CCOCC1)NC(=O)c1cccc(-c2cncc(N(C)C)n2)c1`, the “% Inhibition” value is given as -10% and the Z score is 1.81.
On the same counts, the results for `Cc1cc(N2CCC(NCc3nc(-c4cnccn4)n[nH]3)CC2)nc(N)n1` are -10% and 1.77.
Take `COc1ccccc1NC1CCN([C@@H](C)CN2CCOCC2)CC1`: the “% Inhibition” value was -15% and the Z score is recorded as 2.62.
Taken in the same sequence, the figures for `CCN(CC1=Nc2ccccc2S(=O)(=O)N1)Cc1ccc2[nH]ccc2c1` were -10% and 1.8.
On the same counts, the results for `CC(C)(C#N)c1ccc(-c2ncnc3[nH]ccc23)cc1` are -9% and 1.47.
For `COC[C@@]1(C(=O)O)CCCN1S(=O)(=O)c1ccccc1C#N`, the “% Inhibition” value was 8% and the Z score is reported as -1.33.
On the same counts, the results for `O=S(=O)(N[C@H](c1cccnc1)c1c[nH]c2ccccc12)c1ccc(Cl)cc1` are 2% and -0.42.
On the same counts, the results for `CC(CCO)CNc1nc(NCC(C)CCO)c2ccccc2n1` (centres undefined) are 1% and -0.17.
As for `CC(C)[C@H](C)NCCCCN1CCN(C)CC1`, the “% Inhibition” value came to 2% and the Z score is -0.29.
On to `CN1CCC(N2CCC(Nc3ncccc3Cl)CC2)CC1`, for which the “% Inhibition” value is -2% and the Z score came out at 0.3.
Taken in the same sequence, the figures for `CN1CCN(C(=O)c2cc(Oc3c(F)c(F)c(F)c(F)c3F)cc(C(=O)N3CCN(C)CC3)c2)CC1` were 2% and -0.41.
On the same counts, the results for `CC(=O)N1C[C@H](O)C[C@@H]1C(=O)NCc1ccc(Oc2ccc(F)cc2)c(C)c1` are 5% and -1.15.
Regarding `C[C@@H]1CN(Cc2cn(CC3(O)CCOCC3)nn2)C[C@H](C)O1`, the “% Inhibition” value is 6% and the Z score is given as -1.13.
On the same counts, the results for `O=C(NCc1cccc(-c2cccnc2)c1)N[C@H]1CCN(C2CCCCC2)C1` are 51% and -7.77.
For the molecule `CCOc1cc(N2CC[C@H](Oc3ccnc(CN(C)C)c3)C2)ncn1`, the “% Inhibition” value was -2% and the Z score is 0.28.
Taken in the same sequence, the figures for `CN(C(=O)c1ccc2[nH]ccc2c1)C1CN(c2ccc3nncn3n2)C1` were -7% and 1.18.
Taken in the same sequence, the figures for `COc1cc(OC)cc(N2CC[C@H](N(C)Cc3csc(C)n3)C2)c1` were 1% and -0.2.
On to `CCOc1cc2nccc(N3C[C@H]4CN(C)C[C@H]4C3)c2cc1OCC`, for which the “% Inhibition” value came out at 99% and the Z score is on record as -21.22.
On the same counts, the results for `Cc1ccc(Nc2nc(N3CCN(c4ccccc4Cl)CC3)nc3[nH]nnc23)cc1` are -2% and 0.3.
Taken in the same sequence, the figures for `Clc1cccc2c(Nc3cccc(Br)c3)ccnc12` were -3% and 0.39.
Taken in the same sequence, the figures for `COc1ccnc(NC2CCN(Cc3cnc4ccc(C)cn34)CC2)n1` were 2% and -0.43.
